Measurements published in PMC8954383 (Pharmaceuticals, 2022).
Like-named read-outs stand apart in the source and are kept apart here.

Legend:
SERT mutant Y107C = SERT mutant Y107C (Homo sapiens, UniProt P31645, C109A/Y107C); assay: Cysteine accessibility of SERT mutant Y107C to MTSET (residual APP+ uptake)
hSERT [1] = target: T1, hSERT (Homo sapiens, UniProt P31645); assay: APP+ uptake by cells expressing hSERT (microplate reader); settings: for Mode of SERT inhibition: decreased Vmax, little change in Km for APP+; for Fold more potency in inhibiting SERT than DAT and NET: from Ki values of Table 1; for Vmax of APP+ transport: control 23.71 ± 1.98; for Effect of preincubation with cells on the parameters of inhibition: preincubation 5 min, data not shown
[2] = test system: acute restraint-stressed rat models; parameters: method as in PMID 28800105; settings: 3.6 mg/kg, 7 days, p.o.; cited from earlier work
hDAT = hDAT (Homo sapiens, UniProt Q01959); assay: ASP+ uptake by cells expressing hDAT
Sequence of UniProt Q01959 (Q01959 whole entry): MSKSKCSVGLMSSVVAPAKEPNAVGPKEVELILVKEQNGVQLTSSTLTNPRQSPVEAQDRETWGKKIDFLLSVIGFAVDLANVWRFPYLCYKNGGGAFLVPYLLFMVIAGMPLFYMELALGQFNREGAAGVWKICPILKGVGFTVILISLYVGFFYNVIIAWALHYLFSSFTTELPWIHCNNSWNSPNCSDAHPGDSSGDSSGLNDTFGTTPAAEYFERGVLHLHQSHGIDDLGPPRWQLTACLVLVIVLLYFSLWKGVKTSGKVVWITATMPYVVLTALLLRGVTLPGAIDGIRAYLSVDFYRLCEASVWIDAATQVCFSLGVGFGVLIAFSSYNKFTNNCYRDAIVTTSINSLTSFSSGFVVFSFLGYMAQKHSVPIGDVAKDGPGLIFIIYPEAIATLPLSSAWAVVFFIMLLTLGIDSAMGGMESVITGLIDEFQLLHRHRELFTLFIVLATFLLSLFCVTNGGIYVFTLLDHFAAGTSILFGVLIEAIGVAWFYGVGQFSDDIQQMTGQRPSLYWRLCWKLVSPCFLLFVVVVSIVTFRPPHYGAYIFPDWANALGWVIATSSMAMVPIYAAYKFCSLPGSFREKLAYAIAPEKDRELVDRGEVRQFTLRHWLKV

hSERT [3] = assay: Total and cell surface hSERT-Flag expression (biotinylation, Western blot); assay type: cell-based, human; settings: 2 × Ki concentration (SAG 10 μM, SBG 16 μM), room temperature, 10 min
Procedure: To see if SAG or SBG changes hSERT expression, we measured total and cell surface expression levels of hSERT with or without drug treatments. Total cell lysates were used for measuring total hSERT expression, while cell surface expression of hSERT was determined by using cell surface biotinylation of plasma membrane proteins.
After being labeled with NHS-SS-biotin at 4 °C for 30 min, cells were lysed with lysis buffer. Small portion of lysates analyzed for total hSERT-Flag expression. Cell-surface labelled proteins in the residual solution were captured with streptavidin–agarose and subjected to Western blotting analysis for hSERT-Flag cell surface expression, as described in Section 4. (A) Representative blot of total hSERT-Flag expression. (B) Representative blot of hSERT-Flag cell surface expression. (C) Quantitative analysis for effects of SAG and SBG on hSERT-Flag expression. Graph is a combination of three experiments. All error bars represent SEM.
Cell surface expression of hSERT-Flag was determined using the membrane-impermeant biotinylation reagent sulfo-NHS-SS-biotin as described previously. Briefly, HeLa cells expressing hSERT-Flag were treated twice with NHS-SS-biotin for 20 min on ice. After labeling, the cells were rinsed with 100 mM glycine in phosphate-buffered saline (137 mM NaCl, 2.7 mM KCl, 4.3 mM Na2HPO4, and 1.4 mM KH2PO4, pH 7.3) for 20 min to quench excess biotinylation reagent. Cells were then lysed with lysis buffer (50 mM Tris-HCl, pH 7.5, 150 mM NaCl, 5 mM EDTA, 1% Triton X-100, 0.1% SDS, 0.2 mM phenylmethylsulfonyl fluoride, and 0.5% Sigma protease inhibitor mixture), and biotinylated proteins were captured using streptavidin-agarose in 3 h incubation at 4 °C with gentle agitation. Biotinylated proteins were eluted with 100 μL of SDS-PAGE sample buffer and applied to a 10% SDS-polyacrylamide gel and visualized by Western blotting. hSERT was detected using anti-FLAG M2 monoclonal antibody (1:1000) against the FLAG epitope tag at the C-terminus of hSERT. A horseradish peroxidase-conjugated antimouse IgG (1:10,000) was used to visualize the signal by Super Signal West Femto. The amount of surface expression was determined by quantitative luminescence imaging using a UVP Biochemi imaging system.

hSERT [4] = target: T1, hSERT; assay: Confocal fluorescence image analysis of APP+ intracellular accumulation; settings: read-out: Inhibition of APP+ accumulation
hNET = hNET (Homo sapiens, UniProt P23975); assay: ASP+ uptake by cells expressing hNET
Sequence of UniProt P23975 (P23975 whole entry): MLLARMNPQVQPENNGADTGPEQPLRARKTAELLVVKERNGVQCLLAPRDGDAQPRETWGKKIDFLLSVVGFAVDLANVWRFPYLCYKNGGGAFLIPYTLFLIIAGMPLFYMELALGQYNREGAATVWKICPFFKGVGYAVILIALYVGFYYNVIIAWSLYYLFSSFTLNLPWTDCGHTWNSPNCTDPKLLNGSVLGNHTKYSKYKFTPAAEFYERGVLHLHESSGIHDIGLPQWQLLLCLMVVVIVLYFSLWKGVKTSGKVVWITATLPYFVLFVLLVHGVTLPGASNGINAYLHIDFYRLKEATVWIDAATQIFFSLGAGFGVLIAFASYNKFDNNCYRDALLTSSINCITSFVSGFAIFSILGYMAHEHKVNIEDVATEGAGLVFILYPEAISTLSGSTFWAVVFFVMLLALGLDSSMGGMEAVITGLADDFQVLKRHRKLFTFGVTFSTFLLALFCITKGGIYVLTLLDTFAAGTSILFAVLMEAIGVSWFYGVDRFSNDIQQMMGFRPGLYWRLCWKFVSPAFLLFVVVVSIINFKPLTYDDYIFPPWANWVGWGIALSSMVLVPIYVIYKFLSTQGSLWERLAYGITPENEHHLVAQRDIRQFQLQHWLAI

[5] = test system: cell viability in cell proliferation; assay: CCK-8 cytotoxicity assay; settings: highest tested concentration 1 mM, data not shown

Row | Compound | Effect on reactivity of Y107C with MTSET (SERT mutant Y107C; 0.01 mM MTSET, 15 min, 10 μM fluoxetine, 10 μM SAG, 16 μM SBG, compared with MTSET alone) | Ki (hSERT [1]) | Mode of SERT inhibition (hSERT [1]) | Fold more potency in inhibiting SERT than DAT and NET (hSERT [1]) | Vmax of APP+ transport (hSERT [1]; in the presence of 5 μM SAG) | Effect of preincubation with cells on the parameters of inhibition (hSERT [1]) | Antidepressant and anxiolytic responses [2] | Ki (hDAT) | Cell surface expression level of hSERT (hSERT [3]) | Total expression level of hSERT (hSERT [3]) | inhibition at 5 µM (hSERT [4]) | Ki (hNET) | Effect on cell viability in cell proliferation [5] | Effect on reactivity of Y107C with MTSET (SERT mutant Y107C) | Vmax of APP+ transport (hSERT [1]; in the presence of 8 μM inhibitor) | inhibition at 8 µM (hSERT [4])
1 | COc1cc(C2OCC3C(c4cc(OC)c(OC5OC(CO)C(O)C(O)C5OC5OCC(O)(CO)C5O)c(OC)c4)OCC23)cc(OC)c1O (single isomer, unassigned; (-)) [SAG, (-)-syringaresinol-4-O-β-D-apiofuranosyl-(1→2)-β-D-glucopyranoside] | exhibited potency to protect Y107C from MTSET inactivation | 5.25 ± 0.3 µM | noncompetitively inhibited SERT | 3–4 fold | 11.26 ± 0.96 pmol/min/mg | no effect | produced the antidepressant and anxiolytic responses | 20.4 ± 2.13 µM | did not alter | did not alter | 40 to 50% | 17.4 ± 1.94 µM | little effect |  |  | 
2 | COc1cc([C@@H]2OC[C@@H]3[C@H]2CO[C@H]3c2cc(OC)c(O[C@H]3O[C@@H](CO)[C@H](O)[C@@H](O)[C@@H]3O)c(OC)c2)cc(OC)c1O[C@H]1O[C@@H](CO)[C@H](O)[C@@H](O)[C@@H]1O [SBG, (-)-syringaresinol-4,4′-bis-O-β-D-glucopyranoside] |  | 8.51 ± 0.5 µM | noncompetitively inhibited SERT | 3–4 fold |  | no effect |  | 32.3 ± 2.85 µM | did not alter | did not alter |  | 30 ± 3.61 µM |  | exhibited potency to protect Y107C from MTSET inactivation | 12.08 ± 1.15 pmol/min/mg | 40 to 50%
